Experimental data from the RNAGym collection of RNA variant scans (doi:10.7554/elife.90254).
The source gives no read counts; variants with many changes may rest on few reads.

B1: LINE1-mini (parent)
chain: GGCAGAGCUCAACACAGCGUGGCAAAGUGGCUGUGGCUAGACUGCC

Variants of: B1
Assay: self-cleavage, relative activity (ratio to wild type); higher = more cleavage; in vitro, sequencing; the parent is a self-cleaving ribozyme

Variant	self-cleavage
GGCAGAGCAGAACACAACGUGGCAAAGUGGCUGUGGCUAGACUGCC [U9A C10G G17A]	0.01
GGCAGAGCAGAAGACAGCGUGGCAAAGUGGCUGUGGCUAGGCUGCC [U9A C10G C13G A41G]	0.01
GGCAGAGCAGAACACAGCGUUGCAAAGGGGCUGUGGCUAGACUGCC [U9A C10G G21U U28G]	0.02
GGCAGAGCACAACGCAGCGUGGCAAAGUGGCUUCGACUAGACUGCC [U9A A14G G33U U34C G36A]	0.08
GGCAGAGCACAAGACAGCAUGGCAAAGUGGCUGUGCCUAGACUGCC [U9A C13G G19A G36C]	0.03
GGCAGAGCACAACACAGCGUGGCAAGGUGGCUGUGACUAGACUGCC [U9A A26G G36A]	0.53
GGCAGAGCACAACAAAGCGUGGCAAAGUGGCUGGGGCUAGUCUGCG [U9A C15A U34G A41U C46G]	0.1
GGCAGAGCAAAACACAGCGUGACAAAGUGGCUGUGGCUAGACUGCC [U9A C10A G22A]	0
GGCAGAGCAUAACACAGCGUGGGAAAGUGGCAGUGGCCAGACUGCC [U9A C10U C23G U32A U38C]	0.13
GGCAGAGCACAACACCGCGUGGCAAAGUGGCUGUGGCUAGACUGUC [U9A A16C C45U]	0.01
GGCAGAGCACAACACAGCGUGGCAUAGUGGCUGUGGAUAGACUGCC [U9A A25U C37A]	0.17
GGCAGAGCACAACACAGCGUGGCAACAUGGCUGUGGCUAGUCUGCC [U9A A26C G27A A41U]	0.09
GGCAGAGCACAACACAGCGUGGCAAAGUGGCUGUGGCUAGCCUUCC [U9A A41C G44U]	0.08
GGCAGAGCACAACACAGCGUGGCAAUGUGGCUGUGACUACUCUGCC [U9A A26U G36A G40C A41U]	0.04
GGCAGAGCACAACACAGCGUGGCACAGUGUCUGGGGCUAGACUGCC [U9A A25C G30U U34G]	0.04
GGCAGAGCAAAACACAUCGUGGCAAAGUGGAUAUGGCUAGACUGCC [U9A C10A G17U C31A G33A]	0.04
GGCAGAGCAAAACACAGCGUGACAAAGUGGCUGUGGAUAGACUGCC [U9A C10A G22A C37A]	0.03
GGCAGAGCACAACACAGCGUGGCGAAGUUGCUGUGGCUAGACUGCC [U9A A24G G29U]	0.15
GGCAGAGCACAACACAGCGUGGCACAGUGGCUGUGGCUGGACUGCC [U9A A25C A39G]	0.04

Variant	self-cleavage
GGCAGAGCACAACACCGCGUGGCAAAGUGUCUGUGGAUAGACUGCC [U9A A16C G30U C37A]	0.02
GGCAGAGCACAACACUGCGUGGCCAAGUGGAUGUGGCUAGACUGCC [U9A A16U A24C C31A]	0.02
GGCAGAGCAGAACACAGCGUGGCAAAGUGGCUAUGGCCAGGCUGCC [U9A C10G G33A U38C A41G]	0.01
GGCAGAGCACAAAACAUCGUGGCGAUGUGGCUGUGGGUAGGGUGCC [U9A C13A G17U A24G A26U C37G A41G C42G]	0.32
GGCAGAGCACAACACCGCGUGGCGAAGUGGCUGUGGCUAGACUGGC [U9A A16C A24G C45G]	0.01
GGCAGAGCACAACAAAAUGUGGCAAAGUGGCUGUCGCUAGACUGCC [U9A C15A G17A C18U G35C]	0.04
GGCAGAGCACAACGCAACGUGGCAAAGUGGCUGUGUCUAGACUGCC [U9A A14G G17A G36U]	0.04
GGCAGAGCACAAUACAGCGUGGCAAAGUGGCUGAGGCUAGACUGCU [U9A C13U U34A C46U]	0.06
GGCAGAGCACAACACAGCGUGGCAGAGUGGCUAUGGCUAGACUGCC [U9A A25G G33A]	0.22
GGCAGAGCAUACCACAGCGUGGAAAAGUGGCUGUGGCUAGACUGCC [U9A C10U A12C C23A]	0.01
GGCAGAGCACAAAACAGCGUGACAAAGUGGCUGUAGCUAGACUGCU [U9A C13A G22A G35A C46U]	0.08
GGCAGAGCACAACUCAGCGUGGCAAAGUGUCUGUGGCUAGACUGCC [U9A A14U G30U]	0.03
GGCAGAGCAAAAUACAGCGUGGCAAAGUGGCUGUGGCUAGACUGCC [U9A C10A C13U]	0.03
GGCAGAGCAGAACACAGCGUGGCAAAGUAGUUGUGGCUAGACUGCC [U9A C10G G29A C31U]	0.03
GGCAGAGCAUAACACAGCGUGGCAAAGUGGCUGUGGCCAGAGUGCC [U9A C10U U38C C42G]	0.04
GGCAGAGCACAACACCGCGGGGCAAAGUGGCUGUGGCUAGACUGCC [U9A A16C U20G]	0.15
GGCAGAGCACAACACAGCGUGGCAAAGUGGCUGUGGCUUGACCGCC [U9A A39U U43C]	0.08
GGCAGAGCACAAGACAGCGAGGCAAAGUGGCUGUGGCUAGACUGCC [U9A C13G U20A]	0.08
GGCAGAGCACAACACCGCGUGGCAAAGUGGCUGUGGCUGGACUGCC [U9A A16C A39G]	0.02

Variant	self-cleavage
GGCAGAGCACAACACAGCGUGGCCAAGUGGCUGUGGCUAGAGUGCC [U9A A24C C42G]	0
GGCAGAGCACAACACUGCGUGGCAAAGUGGCUGUGGCUAGCCUGCC [U9A A16U A41C]	0.04
GGCAGAGCAUAACGCAGCUUGGCAAAGAGGCUGUGGCUAGACUGCC [U9A C10U A14G G19U U28A]	0.03
GGCAGAGCACAACAAAGCGUGGCAAAGUGACUGUGUCUAGCCUGCC [U9A C15A G30A G36U A41C]	0.16
GGCAGAGCACAACACAGCGUGGCUAAGUGGCUGUGGCUAGACUGCU [U9A A24U C46U]	0.05
GGCAGAGCACAACACAGCGUGGCAGAGUGGCUGUGGGUAGACAGCC [U9A A25G C37G U43A]	0.04
GGCAGAGCACAAUACAGCGUGGCAAAGUGGCUGUGGCGAGACUGCC [U9A C13U U38G]	0.08
GGCAGAGCACAACACAGCGUGGCAAAGUGGCUGUGGCUAGGCUGGC [U9A A41G C45G]	0.08
GGCAGAGCACAAUACAGCGUGGUAAAGAGGCUGUGGCUAGACUGCC [U9A C13U C23U U28A]	0.12
GGCAGAGCAAAACACAGCGUGGCAAAGUGGCUGUGGCUUGACUGCC [U9A C10A A39U]	0.04
GGCAGAGCACAACCCAGCGAGGCAAAGUGGCUGUGGCUAGACUGUC [U9A A14C U20A C45U]	0.01
GGCAGAGCACAACACAGCGUGGCAAUGUGGCUGUGGCUAGAGUGCC [U9A A26U C42G]	0.02
GGCAGAGCACAUCACAGCGUUGCAAAGUGGCUGUCGCUAGACUGUC [U9A A12U G21U G35C C45U]	0.02
GGCAGAGCAUAACACAGAGUGGCAAAGUGGCGGUGACAAGACUGCC [U9A C10U C18A U32G G36A U38A]	0.08
GGCAGAGCACAACGCAGCGUGGUAAAGUGGCUGUGGCUAAACUGCC [U9A A14G C23U G40A]	0.12
GGCAGAGCACAACACAGCGUGGCAUAGUGGCUGUGGCUAGACUGCG [U9A A25U C46G]	0.07
GGCAGAGCACAACACCGAGUGGCUAAGUGGCUGUGGCUAGACUGCC [U9A A16C C18A A24U]	0.29
GGCAGAGCACAACCAAGCGUGGCAAAGUGGCUGUGGCUAGACUGCC [U9A A14C C15A]	0.16
